Some of the results follow.
T1: UNK ZnF1-3 (human, UniProt Q9C0B0 31-174)
T1 sequence: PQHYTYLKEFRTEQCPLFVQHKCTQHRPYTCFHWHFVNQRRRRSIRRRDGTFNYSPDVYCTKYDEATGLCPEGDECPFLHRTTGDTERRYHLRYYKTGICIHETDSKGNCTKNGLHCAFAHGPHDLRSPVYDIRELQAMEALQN

B1: chr5:32761720:32761721:+_ENSMUSG00000014956_ENSMUST00000015100|mus_mus|FALSE|FALSE (ssRNA)
RNA: GGGAGUUCUACAGUCCGACGAUCAGGCUGUCCACGUUCAGCUCCCCGUCCGCCAUCUUGUCGGCACCAGACUCUCCUCCCUAAAGCGUUAACAGGGCUUCUCGGCGGCGGCGGCGGCUCGGCGUUCUCACCUACGAGUCACGCCAACAGAGGAUUGAGCAUCA
B2: chr3:176740097:176740098:-_ENSG00000177565_ENST00000430069|hu_mus|hu_hu_hu_mus_True|8_38 (ssRNA)
RNA: GGGAGUUCUACAGUCCGACGAUCUGUUUUGUAUACCACAAAAGGAGGCACUUUCAGUAUCUGCAAAAGGUGUUUAGUCCUAAAACAUACUCACCUAGAGAAUAAUUCAGGAAAACAAUCUGUUACACUAGUAUCUAUACUCCACAACAGAGGAUUGAGCAUCA
B3: chr2:86849987:86849988:-_ENSG00000239305_ENST00000237455|hu_hu|FALSE|FALSE (ssRNA)
RNA: GGGAGUUCUACAGUCCGACGAUCCACAAUGGCCUCAAAAAACCUGGCCAGGACGAACAGGACCAGGAAAUAGAGGAGCAAGAAAAAAAGCUUCAGCCACAUCUUCCCUGGAGUUUCCUCUCUUUCCAGAGAGCUCGGAAUACGCAACAGAGGAUUGAGCAUCA
B4: chr1:174017691:174017692:+_ENSMUSG00000026553_ENSMUST00000135192|mus_hu|FALSE|FALSE (ssRNA)
RNA: GGGAGUUCUACAGUCCGACGAUCAACUGGAUGACCCCAUUAUGUAAACUAGUCAGGAUCCAAGGUCUUUUGGGGUGAAAGCUGAGCCCUUUGACCCGCGCGCUCUUGGUCUCGAAUUUGGUUAACAUCUCUCAGGUCUCCGACCAACAGAGGAUUGAGCAUCA
B5: chr3:134197472:134197473:-_ENSG00000129055_ENST00000354910|hu_hu|motif|central (ssRNA)
RNA: GGGAGUUCUACAGUCCGACGAUCAGGAGCCAAGCGUCAGUUUCCAAUGGGGGGAACAUUCUCAUGGAGGUACUGUAAGGCGGAGUCUGUCCACUUCAUUUCUUGUUCUUUGACAGAUUCUGUGGUGCCACCAUUGUCUUGUUCCAACAGAGGAUUGAGCAUCA
B6: chr8:74527950:74527951:-_ENSG00000040341_ENST00000355780|hu_mus|FALSE|FALSE (ssRNA)
RNA: GGGAGUUCUACAGUCCGACGAUCUUCUUUAAUAACCUCAAAACUGACAGGCAUAUUUCUCUUCAGCGCAAUCUCAAACACUAAGCUUAUUUCAGAUUUAUUUGCAUCUUUAUCGUCAUCCAUUUCUUUUCCUGAUUCACCAUUCAACAGAGGAUUGAGCAUCA
B7: chr15:96521860:96521861:-_ENSMUSG00000022462_ENSMUST00000023099|mus_hu|FALSE|FALSE (ssRNA)
RNA: GGGAGUUCUACAGUCCGACGAUCGAAAUCUUUUGAUGCACACAACAAGUGAGUUACAGAACUCCGGAUUGGGAAAAUAACUACUGGUACUGUCAGGGUCACAGCCAUUAACACAGCCAGACGGACAAUGAGAAGAAGAAUAUCCAACAGAGGAUUGAGCAUCA
B8: chr1:163115795:163115796:-_ENSG00000143248_ENST00000313961|hu_hu|motif|central (ssRNA)
RNA: GGGAGUUCUACAGUCCGACGAUCGAGUUAAUAUCCUCAUCUCGAUUACCCUCAUACAUGGCUUAGUUUGAUUCUGUUACGGAAUUCUGUGAAUCAUUAUUUAAUCAAAUCUACUAAAGAUUAGAAAAAAUUCUAGCAAGACUUCAACAGAGGAUUGAGCAUCA
B9: chr12:39763582:39763583:-_ENSG00000139116_ENST00000544797|hu_mus|hu_hu_hu_mus_False|28_78 (ssRNA)
RNA: GGGAGUUCUACAGUCCGACGAUCCUCUAGGAACUGGGCAUUCACUUUGAAUUCAGGAGCAGGAAGCCCGUUUUUAAUCGCUGAGGUCUUUUUCUCAUCAAUACUCUUAAAAAGGUGUCUAACAGCACGAGAGAUGAUGCCCUGCAACAGAGGAUUGAGCAUCA
B10: chr2:24917620:24917621:+_ENSMUSG00000006476_ENSMUST00000102931|mus_hu|FALSE|FALSE (ssRNA)
RNA: GGGAGUUCUACAGUCCGACGAUCCAAGAAAUGCUGCUUCCCUUUGAAUUGUUUCGGGGGUGUAGAAAUUGCACUUAUUUCUAUGAACCCCAUGGAGGGAUGCCCACAGCUGAGCCUCCAGGCGAGGCAUGGCAGGUCAGUGCCCAACAGAGGAUUGAGCAUCA
B11: chr11:77336104:77336105:-_ENSG00000074201_ENST00000525064|hu_mus|hu_hu_hu_mus_False|88_108 (ssRNA)
RNA: GGGAGUUCUACAGUCCGACGAUCCUCGCACAUUGCAGUGAACAUCGCCUCCAACGCUGACUUAUCACUGGGCACAAAUCGAAAUUCAGAAAUGGGUUCAACAUCAUCAUUGUCUUCCUCAUCUUCAUCAGAGAGAGGUUCUUUCAACAGAGGAUUGAGCAUCA
B12: 21681212_21699163_576_CDS_ENSG00000092199_ENST00000553300|human|control|control (ssRNA)
RNA: GGGAGUUCUACAGUCCGACGAUCCGAGGGCACUACAGCCCGAGCAAUAGGAGGAGGAGGAGGUACACGUGCUGGGUAACUGUACAUCCUAUCAUAAUAGUCCCGUUGAAAGUCAUAGUCCAAGUCAAAAGAGGAGCCGUACAUCAACAGAGGAUUGAGCAUCA
B13: 41342749_41343464_1019_CDS_ENSG00000188554_ENST00000341165|human|control|control (ssRNA)
RNA: GGGAGUUCUACAGUCCGACGAUCUUUACGUUGUUUCUUCUCAGCUCGCAACCUUUGCUUUUCUGCUUUAAGAAAGUUCUUAUCAACCUGUUUCUGGAGCCUGACUUGUUCCAGAGCAGCAGGAAGACGAGGAGUAGAGUACUUCAACAGAGGAUUGAGCAUCA
B14: chr4:57314706:57314707:+_ENSG00000128050_ENST00000264221|hu_mus|hu_hu_hu_mus_True|48_108 (ssRNA)
RNA: GGGAGUUCUACAGUCCGACGAUCCAGUAUUUCAAAUAUAGCUUGUGUGGCAUGACUCAUGAUGUCCACUUCAGUCUGCCCUAUAACAAGUCCAGCAAAACAGAAUUUUGCAGCAAUGAGUUGCUCCUCAGACCACUGUGGAUCCAACAGAGGAUUGAGCAUCA

What follows are binders tested against T1, UNK ZnF1-3 (assay: nsRBNS (natural sequence RNA bind-n-seq); RBNS binding buffer (assumed for nsRBNS): 25 mM Tris pH 7.5, 150 mM KCl, 3 mM MgCl2, 0.01% Triton X-100, 500 ug/ml BSA, 20 U/ml SUPERase-In, 4 C; UNK is unkempt and MSI1 is Musashi-1; names of the RNAs are library labels; protein concentration not given here; high values mean tight binding).

Row | Binder | binding signal
1 | B1 | 0.754 enrichment R
2 | B2 | 0.662 enrichment R
3 | B3 | 1.36 enrichment R
4 | B4 | 1.03 enrichment R
5 | B5 | 0.404 enrichment R
6 | B6 | 0.806 enrichment R
7 | B7 | 1.83 enrichment R
8 | B8 | 0.798 enrichment R
9 | B9 | 1.5 enrichment R
10 | B10 | 0.713 enrichment R
11 | B11 | 1.07 enrichment R
12 | B12 | 2.03 enrichment R
13 | B13 | 0.48 enrichment R
14 | B14 | 0.904 enrichment R
